# This is one part of the list.
# B1: Epa10 (protein)
# chain: MNEKIFRYLTLLFLFELARSLPVEDKLNIKKVFEKRAVDFTPFAHYPRPEGCSSPPNSVSVGLHMNLYNYPYLYVKPSTKGMFTNDTNSDADGETDGDSAGGIEGRAGQCWNPEYQDPNFPRFGYKQYGEFGASDNVNGDISWDHNEFTEGCKPVLAALPPGYNYPDEITFSNFTMVLSGYFKPKTSGVYKFELKADDFILFNFGAKNAFECCNREESIDNFGPYVAYAMWPNQADQELEVYLFEDSYYPLRLFYNNRDYHSKFKIGFYPPGQTTITFDFDGYLFMLDDTGNECRDSIRYRTVCDDKVVDDTTYSTRYSTSMVPGGGSDVITIYYIRMKCEEEDCLGQWDPINNVCYSPDDCADDGGYWNGQMCDQSCKLEGGIVNPDTGDCDKSCIESGGFLDENGNCDTTCRDDGGMLVEGQCDYQCKEAGGILVGDHCDTTCVDSGGKLNEDGTCDHSCRDQGGQLDENGECDTSCKDSGGMLIEGECDTSCKDEGGQLDDNNECINHCKDQGGIIDENGNCDTSCKDSGGKLDESGACDTSCRDDGGIIDENGNCNTTCRDDGGIIVGDHCDTSCRDAGGILIEDHCDTTCRDSGGKLNEDGTCDHSCRDQGGQLDENGKCDYSCKNGGGKLDEDGNCDMSCKENGGKLDENGDCDLSCKEDGGKLDGNGDCDYSCKEEGGVIDESGNCNTTCKDSGGQIIDGECNYGCIEVGGVVIDGECDTSCIDSGGILDGDGNCDRSCIESGGVLEDGACNTTCRDSGGQLNVDGTCDTSCRDDGGMLVEGQCDYQCKEAGGILEDGECVFPPTSSSTSETSSTTDQSSLQSDDSSMESSSTPMDSSTIESSSSEIITSESESESVPIASSSSEVMTSESESESIPILTSSSEIPIASSSSEIPVASSSSEIIIPESESESVPVASSSSEIPIASSSSEIPVASSSSEIPVASSSSEIIIPESESESIPIESTSSEAVSSRSESDSSYPTPTPTTTTITTWPNPIQPTTSNSSPIVSSSTETPGIAESSSRISDLESSRRTSILGDDRTRTRTTITSTITEDGQIITITTTVTGFVPEPTGETEGNGSDDENPENPIENNTDENEFLDPEFTDDIPDDPAGPEDNGNGPVNPEQGNDNDPVNLEDSGNNGAVNPEQAPVNDEDNGGNDPVNPEQDNNNGPANPGQDSTNGSGNSDQIDNNPPTPEENAGDGNSNGNDPADPSRRTSILGDERTRASPGGTSQPTGANGNVNGNSPGANVNGGGTGNSNNNNNNNNNNNNGNAPNGGDGSNGDANQGPSRRTSLLGDERTRAGQAAPTGGSSPDNGIAGDTSNNGGAIVSQQVDDGGAGSPRRTSILGDVRSRTTLNGEVLNFEGSGVRRAVAGNLALPLMMVGLVFNL
# Experiments:
# Test in all cases: glycan array binding signal (z-score within array); higher = stronger binding
# Conditions in all cases: glycan notation: IUPAC condensed, linker removed
# [1] = target: Neu5Ac(a2-6)Gal(b1-4)GlcNAc(b1-2)Man(a1-3)[Man(a1-6)]Man(b1-4)GlcNAc(b1-4)GlcNAc
# Method in brief: (§1)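 Negative Z-scores can be read as non-binding. The Z-score is calculated within each array and then averaged across arrays of one protein sequence at different concentrations or buffers and across linkers. Arrays, 3228 in all, were curated from the Consortium for Functional Glycomics database and kept only where the protein sequence was available.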
# [2] = target: Neu5Ac(a2-6)Gal(b1-4)GlcNAc(b1-2)Man(a1-3)[Neu5Ac(a2-3)Gal(b1-4)GlcNAc(b1-2)Man(a1-6)]Man(b1-4)GlcNAc(b1-4)GlcNAc
# Method in brief: as §1
# [3] = target: Neu5Ac(a2-6)Gal(b1-4)GlcNAc(b1-2)Man(a1-3)[Neu5Ac(a2-6)Gal(b1-4)GlcNAc(b1-2)Man(a1-6)]Man(b1-4)GlcNAc(b1-4)GlcNAc
# Method in brief: as §1
# [4] = target: Neu5Ac(a2-6)Gal(b1-4)GlcNAc(b1-2)Man(a1-3)[Neu5Ac(a2-6)Gal(b1-4)GlcNAc(b1-2)Man(a1-6)]Man(b1-4)GlcNAc(b1-4)[Fuc(a1-6)]GlcNAc
# Method in brief: as §1
# [5] = target: Neu5Ac(a2-6)Gal(b1-4)GlcNAc(b1-2)Man(a1-6)Man(b1-4)GlcNAc(b1-4)GlcNAc
# Method in brief: as §1
# [6] = target: Neu5Ac(a2-6)Gal(b1-4)GlcNAc(b1-2)Man(a1-6)[Gal(b1-4)GlcNAc(b1-2)Man(a1-3)]Man(b1-4)GlcNAc(b1-4)GlcNAc
# Method in brief: as §1
# [7] = target: Neu5Ac(a2-6)Gal(b1-4)GlcNAc(b1-2)Man(a1-6)[GlcNAc(b1-2)Man(a1-3)]Man(b1-4)GlcNAc(b1-4)GlcNAc
# Method in brief: as §1
# [8] = target: Neu5Ac(a2-6)Gal(b1-4)GlcNAc(b1-2)Man(a1-6)[Man(a1-3)]Man(b1-4)GlcNAc(b1-4)GlcNAc
# Method in brief: as §1
# [9] = target: Neu5Ac(a2-6)Gal(b1-4)GlcNAc(b1-2)[Neu5Ac(a2-6)Gal(b1-4)GlcNAc(b1-4)]Man(a1-3)[GlcNAc(b1-4)][Neu5Ac(a2-6)Gal(b1-4)GlcNAc(b1-2)[Neu5Ac(a2-6)Gal(b1-4)GlcNAc(b1-6)]Man(a1-6)]Man(b1-4)GlcNAc(b1-4)GlcNAc
# Method in brief: as §1
# [10] = target: Neu5Ac(a2-6)Gal(b1-4)GlcNAc(b1-2)[Neu5Ac(a2-6)Gal(b1-4)GlcNAc(b1-4)]Man(a1-3)[GlcNAc(b1-4)][Neu5Ac(a2-6)Gal(b1-4)GlcNAc(b1-4)Man(a1-6)]Man(b1-4)GlcNAc(b1-4)GlcNAc
# Method in brief: as §1
# [11] = target: Neu5Ac(a2-6)Gal(b1-4)GlcNAc(b1-2)[Neu5Ac(a2-6)Gal(b1-4)GlcNAc(b1-6)]Man(a1-6)[Neu5Ac(a2-6)Gal(b1-4)GlcNAc(b1-2)Man(a1-3)][GlcNAc(b1-4)]Man(b1-4)GlcNAc(b1-4)GlcNAc
# Method in brief: as §1
# [12] = target: Neu5Ac(a2-6)Gal(b1-4)GlcNAc(b1-3)Gal(b1-3)GlcNAc
# Method in brief: as §1
# [13] = target: Neu5Ac(a2-6)Gal(b1-4)GlcNAc(b1-3)Gal(b1-4)GlcNAc
# Method in brief: as §1
# [14] = target: Neu5Ac(a2-6)Gal(b1-4)GlcNAc(b1-3)Gal(b1-4)GlcNAc(b1-2)Man(a1-3)[Neu5Ac(a2-6)Gal(b1-4)GlcNAc(b1-3)Gal(b1-4)GlcNAc(b1-2)Man(a1-6)]GalNAc
# Method in brief: as §1
# [15] = target: Neu5Ac(a2-6)Gal(b1-4)GlcNAc(b1-3)Gal(b1-4)GlcNAc(b1-3)Gal(b1-4)GlcNAc
# Method in brief: as §1
# [16] = target: Neu5Ac(a2-6)Gal(b1-4)GlcNAc(b1-3)Gal(b1-4)GlcNAc(b1-3)Gal(b1-4)GlcNAc(b1-2)Man(a1-3)[Neu5Ac(a2-6)Gal(b1-4)GlcNAc(b1-3)Gal(b1-4)GlcNAc(b1-3)Gal(b1-4)GlcNAc(b1-2)Man(a1-6)]GalNAc
# Method in brief: as §1
# [17] = target: Neu5Ac(a2-6)Gal(b1-4)GlcNAc(b1-3)Gal(b1-4)GlcNAc(b1-3)GalNAc
# Method in brief: as §1
# [18] = target: Neu5Ac(a2-6)Gal(b1-4)GlcNAc(b1-3)Gal(b1-4)GlcNAc(b1-3)[Neu5Ac(a2-6)Gal(b1-4)GlcNAc(b1-3)Gal(b1-4)GlcNAc(b1-6)]GalNAc
# Method in brief: as §1
# [19] = target: Neu5Ac(a2-6)Gal(b1-4)GlcNAc(b1-3)Gal(b1-4)GlcNAc(b1-6)[Gal(b1-3)]GalNAc
# Method in brief: as §1
# [20] = target: Neu5Ac(a2-6)Gal(b1-4)GlcNAc(b1-3)Gal(b1-4)[Fuc(a1-3)]GlcNAc(b1-3)Gal(b1-4)[Fuc(a1-3)]GlcNAc
# Method in brief: as §1
# [21] = target: Neu5Ac(a2-6)Gal(b1-4)GlcNAc(b1-3)GalNAc
# Method in brief: as §1
# [22] = target: Neu5Ac(a2-6)Gal(b1-4)GlcNAc(b1-3)[Neu5Ac(a2-6)Gal(b1-4)GlcNAc(b1-6)]GalNAc
# Method in brief: as §1
# [23] = target: Neu5Ac(a2-6)Gal(b1-4)GlcNAc(b1-6)GalNAc
# Method in brief: as §1
# [24] = target: Neu5Ac(a2-6)Gal(b1-4)GlcNAc(b1-6)[Gal(b1-3)GlcNAc(b1-3)]Gal(b1-4)Glc
# Method in brief: as §1
# [25] = target: Neu5Ac(a2-6)Gal(b1-4)GlcNAc(b1-6)[Gal(b1-3)]GalNAc
# Method in brief: as §1
# [26] = target: Neu5Ac(a2-6)Gal(b1-4)GlcNAc6S
# Method in brief: as §1
# [27] = target: Neu5Ac(a2-6)GalNAc
# Method in brief: as §1
# [28] = target: Neu5Ac(a2-6)GalNAc(b1-4)GlcNAc
# Method in brief: as §1
# [29] = target: Neu5Ac(a2-6)GalNAc(b1-4)GlcNAc6S
# Method in brief: as §1
# [30] = target: Neu5Ac(a2-6)GlcNAc(b1-4)GlcNAc
# Method in brief: as §1
binder,measurement,setting,value
B1,glycan array binding signal (z-score),[1],-0.263
same,glycan array binding signal (z-score),[2],-0.177
same,glycan array binding signal (z-score),[3],-0.231
same,glycan array binding signal (z-score),[4],-0.24
same,glycan array binding signal (z-score),[5],-0.104
same,glycan array binding signal (z-score),[6],-0.232
same,glycan array binding signal (z-score),[7],-0.21
same,glycan array binding signal (z-score),[8],-0.281
same,glycan array binding signal (z-score),[9],-0.211
same,glycan array binding signal (z-score),[10],-0.17
same,glycan array binding signal (z-score),[11],-0.287
same,glycan array binding signal (z-score),[12],-0.258
same,glycan array binding signal (z-score),[13],-0.253
same,glycan array binding signal (z-score),[14],0.026
same,glycan array binding signal (z-score),[15],-0.248
same,glycan array binding signal (z-score),[16],-0.016
same,glycan array binding signal (z-score),[17],-0.163
same,glycan array binding signal (z-score),[18],-0.177
same,glycan array binding signal (z-score),[19],0.429
same,glycan array binding signal (z-score),[20],-0.139
same,glycan array binding signal (z-score),[21],-0.081
same,glycan array binding signal (z-score),[22],-0.239
same,glycan array binding signal (z-score),[23],-0.204
same,glycan array binding signal (z-score),[24],-0.227
same,glycan array binding signal (z-score),[25],0.906
same,glycan array binding signal (z-score),[26],-0.208
same,glycan array binding signal (z-score),[27],-0.217
same,glycan array binding signal (z-score),[28],-0.281
same,glycan array binding signal (z-score),[29],-0.254
same,glycan array binding signal (z-score),[30],-0.278

# Source: the supplement of paper PMC8728848
